# The list shows a part of the results.
# Key:
# Experiment in all cases: glycan array binding signal (z-score within array); higher = stronger binding
# Conditions in all cases: glycan notation: IUPAC condensed, linker removed; mutation: Y228W
# [1] = biological target: Gal(b1-3)GlcNAc(b1-2)Man(a1-3)[Gal(b1-3)GlcNAc(b1-2)Man(a1-6)]Man(b1-4)GlcNAc(b1-4)GlcNAc
# In short: (§1)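 The binding signal is a Z-score computed within each array. Data were drawn from 3228 arrays in the Consortium for Functional Glycomics database, restricted to those with a known protein sequence. Scores were averaged over arrays of the same protein sequence at different concentrations or buffers, and over linkers, and negative values can be taken as non-binding.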
# [2] = biological target: Gal(b1-3)GlcNAc(b1-2)Man(a1-3)[Gal(b1-3)GlcNAc(b1-2)Man(a1-6)]Man(b1-4)GlcNAc(b1-4)[Fuc(a1-6)]GlcNAc
# In short: as §1
# [3] = biological target: Gal(b1-3)GlcNAc(b1-2)Man(a1-3)[GlcNAc(b1-4)][Gal(b1-3)GlcNAc(b1-2)Man(a1-6)]Man(b1-4)GlcNAc(b1-4)GlcNAc
# In short: as §1
# [4] = biological target: Gal(b1-3)GlcNAc(b1-2)[Gal(b1-3)GlcNAc(b1-6)]Man(a1-6)[Gal(b1-3)GlcNAc(b1-2)Man(a1-3)]Man(b1-4)GlcNAc(b1-4)GlcNAc
# In short: as §1
# [5] = biological target: Gal(b1-3)GlcNAc(b1-3)Gal(b1-3)GlcNAc
# In short: as §1
# [6] = biological target: Gal(b1-3)GlcNAc(b1-3)Gal(b1-4)Glc
# In short: as §1
# [7] = biological target: Gal(b1-3)GlcNAc(b1-3)Gal(b1-4)GlcNAc
# In short: as §1
# [8] = biological target: Gal(b1-3)GlcNAc(b1-3)Gal(b1-4)GlcNAc(b1-2)Man(a1-3)[Gal(b1-3)GlcNAc(b1-3)Gal(b1-4)GlcNAc(b1-2)Man(a1-6)]Man(b1-4)GlcNAc(b1-4)GlcNAc
# In short: as §1
# [9] = biological target: Gal(b1-3)GlcNAc(b1-3)Gal(b1-4)GlcNAc(b1-2)[Gal(b1-3)GlcNAc(b1-3)Gal(b1-4)GlcNAc(b1-6)]Man(a1-6)[Gal(b1-3)GlcNAc(b1-3)Gal(b1-4)GlcNAc(b1-2)Man(a1-3)]Man(b1-4)GlcNAc(b1-4)[Fuc(a1-6)]GlcNAc
# In short: as §1
# [10] = biological target: Gal(b1-3)GlcNAc(b1-3)Gal(b1-4)GlcNAc(b1-3)Gal(b1-4)GlcNAc(b1-2)[Gal(b1-3)GlcNAc(b1-3)Gal(b1-4)GlcNAc(b1-3)Gal(b1-4)GlcNAc(b1-6)]Man(a1-6)[Gal(b1-3)GlcNAc(b1-3)Gal(b1-4)GlcNAc(b1-3)Gal(b1-4)GlcNAc(b1-2)Man(a1-3)]Man(b1-4)GlcNAc(b1-4)[Fuc(a1-6)]GlcNAc
# In short: as §1
# [11] = biological target: Gal(b1-3)GlcNAc(b1-3)Gal(b1-4)GlcNAc(b1-6)[Gal(b1-3)GlcNAc(b1-3)]Gal(b1-4)Glc
# In short: as §1
# [12] = biological target: Gal(b1-3)GlcNAc(b1-3)Gal(b1-4)[Fuc(a1-3)]GlcNAc
# In short: as §1
# [13] = biological target: Gal(b1-3)GlcNAc(b1-3)Gal(b1-4)[Fuc(a1-3)]GlcNAc(b1-6)[Gal(b1-3)GlcNAc(b1-3)]Gal(b1-4)Glc
# In short: as §1
# [14] = biological target: Gal(b1-3)GlcNAc(b1-3)GalNAc
# In short: as §1
# [15] = biological target: Gal(b1-3)GlcNAc(b1-6)Gal(b1-4)GlcNAc
# In short: as §1
# [16] = biological target: Gal(b1-3)GlcNAc(b1-6)GalNAc
# In short: as §1
# [17] = biological target: Gal(b1-3)GlcNAc(b1-6)[Gal(b1-3)]GalNAc
# In short: as §1
# Gal(b1-3)GlcNAc6S = biological target: Gal(b1-3)GlcNAc6S
# In short: as §1
# [18] = biological target: Gal(b1-3)[Fuc(a1-4)]GlcNAc
# In short: as §1
# [19] = biological target: Gal(b1-3)[Fuc(a1-4)]GlcNAc(b1-2)Man
# In short: as §1
# [20] = biological target: Gal(b1-3)[Fuc(a1-4)]GlcNAc(b1-2)Man(a1-3)[Gal(b1-3)[Fuc(a1-4)]GlcNAc(b1-2)Man(a1-6)]Man(b1-4)GlcNAc(b1-4)[Fuc(a1-6)]GlcNAc
# In short: as §1
# [21] = biological target: Gal(b1-3)[Fuc(a1-4)]GlcNAc(b1-3)Gal(b1-3)[Fuc(a1-4)]GlcNAc
# In short: as §1
# [22] = biological target: Gal(b1-3)[Fuc(a1-4)]GlcNAc(b1-3)Gal(b1-4)[Fuc(a1-3)]GlcNAc
# In short: as §1
# [23] = biological target: Gal(b1-3)[Fuc(a1-4)]GlcNAc(b1-6)GalNAc
# In short: as §1
# [24] = biological target: Gal(b1-3)[GlcNAc(b1-6)]GalNAc
# In short: as §1
# [25] = biological target: Gal(b1-3)[Neu5Ac(a2-6)]GalNAc
# In short: as §1
# [26] = biological target: Gal(b1-3)[Neu5Ac(a2-6)]GlcNAc(b1-4)Gal(b1-4)Glc
# In short: as §1
# [27] = biological target: Gal(b1-3)[Neu5Ac(b2-6)]GalNAc
# In short: as §1
# Gal(b1-4)Gal = biological target: Gal(b1-4)Gal
# In short: as §1
# [28] = biological target: Gal(b1-4)GalNAc(a1-3)[Fuc(a1-2)]Gal(b1-4)GlcNAc
# In short: as §1
binder,measurement,setting,value
"Epa1-NP-mutant-Y228W (Candida glabrata), Q6VBJ0 (protein) MILNPALFLNKCVCIYTTLILLLLTNGGYATSSNDISLASKDPTTFPLGCSPDITTPKKGLSMELYSYDFRKKGSYPCWDAAYLDPNYPRTGYKSHRLLAKVDGVTGNINFYYHATKGCTPQLGHLPASYNYPKPLTMTNFTMLLYGYFRPKVTGFHTFTISADDLLFVNFGAGNAFDCCRRDSSADHFGNYQAYAIWGSKTAKDELTVHLDAGVYYPIRLFYNNREWDGALSFTFKTESNENTVSDFSEYFFSLDDTEEGCPGLISYDSSCASVKTSKIIGIDYHTETPNENLVPITKTIYHLGIPCTGTTTTPLCGSGFYDPLANKCVTINTSSTSSVTKTTSHTTSKEVSFHSSISSQKTLIPKSIPSPYGPIKSQSIPTEMETSSEISSSEYAFSDVISTPSHSPYTKKHSSLNSSSYTSTVIHSLTSYSISQGIFSTSLSEQNITSKSSTDKFSTATSMSNNITQSSIIISQFSTNNENYTTTSMHTSSDKISTETLNNSISTTTSILFSNSSTILKNNTTIISSDKDTHYHPVNPTIVCSTNKTEIICASITQPSISNSNNHWSSSVLKFNSTTVRSTLPSSAGSNETSINVPFSSSTESNTSTSSTSTSNSKMVRSTLPSSAGSNETSISVPFSSSTESNTSTSSTSTSNSKMVRSTLPSSAGSNETSINVPFSSSTESNTSTSSTSTSNSKTVRSTPFSSAGIIMTSLSQRNNKSASSYASSNSKCYNTADSCRKVHSTPSYLLTSSYTSEGVDYDCSLVSTKLKINDTNCVNNKHTTKSCLKTSVTTTIPTLEIKTARKSSSNTIGLHSYPTSSPNKSISSAPIIGYISSFKTIKTASPSYQTSDLTTITTITSLNNPGSTAVENTHESNDKSRKTSSNDISSKHSVIKETKDAVESSNKSHQTNTLKCSSIIIASSSHNSYESLGGTTLTLTLSKVYSPQNNDTLPFLEISEVNPSRTVLPESSKMMQYLTSTEERNKTARNTIATNIVSISTFHFEGEGNAIRMGYTQLLLMLIGIIVMNIGT",glycan array binding signal (z-score),[1],-0.191
same,glycan array binding signal (z-score),[2],0.073
same,glycan array binding signal (z-score),[3],-0.255
same,glycan array binding signal (z-score),[4],0.125
same,glycan array binding signal (z-score),[5],-0.251
same,glycan array binding signal (z-score),[6],-0.144
same,glycan array binding signal (z-score),[7],-0.333
same,glycan array binding signal (z-score),[8],-0.274
same,glycan array binding signal (z-score),[9],0.351
same,glycan array binding signal (z-score),[10],0.333
same,glycan array binding signal (z-score),[11],0.168
same,glycan array binding signal (z-score),[12],-0.147
same,glycan array binding signal (z-score),[13],-0.494
same,glycan array binding signal (z-score),[14],-0.127
same,glycan array binding signal (z-score),[15],0.294
same,glycan array binding signal (z-score),[16],-0.205
same,glycan array binding signal (z-score),[17],0.311
same,glycan array binding signal (z-score),Gal(b1-3)GlcNAc6S,0.221
same,glycan array binding signal (z-score),[18],-0.287
same,glycan array binding signal (z-score),[19],0.162
same,glycan array binding signal (z-score),[20],0.37
same,glycan array binding signal (z-score),[21],-0.413
same,glycan array binding signal (z-score),[22],-0.061
same,glycan array binding signal (z-score),[23],0.075
same,glycan array binding signal (z-score),[24],0.692
same,glycan array binding signal (z-score),[25],0.486
same,glycan array binding signal (z-score),[26],-0.504
same,glycan array binding signal (z-score),[27],-0.277
same,glycan array binding signal (z-score),Gal(b1-4)Gal,-0.091
same,glycan array binding signal (z-score),[28],-0.291

# Reference: the supplement of paper PMC8728848
